This is an account of results in PubChem BioAssay AID463173 (ICCB-Longwood Screening Facility, Harvard Medical School, 2010).

Each structure is given as a SMILES string. Screen size: about 52,000 compounds; about 4,300 (8.3%) were called active. No stated cut-off is given here; in the data, active means survival mostly below about 52% (no sharp cut-off); inactive means mostly above about 56%. The list shows a part of the results.

The test system of this assay is DeltatarO mutant. Description: growth inhibition of S. aureus wild type versus tarO mutant, primary screen, teichoic acid synthesis inhibitors, RN4220, OD600 (AID 463173). The note with it: OD600, 18 h, stronger effect = lower value, screened at 18.75 µg/mL (by protocol).
For the molecule `CC(NC(=O)CCCn1c(=O)c2cccn2c2cccnc21)c1ccccc1` (stereo unspecified), the survival was inactive: 93%.

For `CCOc1cc(-n2cnnn2)c(OCC)cc1NC(=O)c1cc2cccc(OC)c2oc1=O`, the survival is inactive: 81%.

On to `CCc1ccc(CNC(=O)c2ccc(-c3nc(CS(=O)(=O)c4ccccc4)c(C)o3)cc2)cc1`, for which the survival was inactive: 54%.

`COc1cc2c(cc1OC)C(C)N(C(=O)CN1CCOCC1)CC2` (stereo unspecified): the survival was inactive: 88%.

As to `Cc1coc2c(C)c3oc(=O)c(CCC(=O)NCCc4ccc(Cl)cc4)c(C)c3cc12`, the survival is inactive: 58%.

`COc1ccc(N2CCN(C(=O)c3nc(SC)ncc3Cl)CC2)cc1`: the survival is inactive: 78%.

In the case of `COC(=O)C1(C)NC(c2ccc(OC)cc2)C2C(=O)N(c3ccccc3)C(=O)C21` (stereo unspecified), the survival is inactive: 80%.

For `CC(C)OC(=O)CN1C(=O)C(C)(C)Oc2ccc(C(=O)Nc3ccccc3)cc21`, the survival was inactive: 98%.

Turning to `Cc1cc(F)ccc1NCc1ccccc1-c1nnc(-c2ccccc2Cl)o1`, the survival was inactive: 84%.

In the case of `O=C(NCC(c1cccnc1)N1CCc2ccccc21)c1cccc(C(F)(F)F)c1` (stereo unspecified), the survival was active: 45%.

`CCCNC(=O)CSc1nc2nc(C)c(Cc3ccccc3Cl)c(C)n2n1`: the survival is inactive: 60%.

Take `Cc1ccc(-c2noc(-c3nnn(CC(=O)Nc4cc(C)cc(C)c4)c3N)n2)cc1`: the survival is inactive: 115%.

As to `O=C(CSc1nccn1Cc1ccc(F)cc1)Nc1ccc2c(c1)OCCO2`, the survival was inactive: 67%.

For `COc1ccc(CCCc2nnc(SCC(=O)Nc3ccc(C)cc3C)o2)cc1`, the survival is inactive: 55%.

For `CCN(CC)S(=O)(=O)c1cc(-c2onc(C)c2C)ccc1OC`, the survival was inactive: 85%.

As for `CCN(CCCNC(=O)c1cc2c(=O)n(CC)c3ccccc3c2s1)c1ccccc1`, the survival was active: 47%.

`COCCCNC(=O)c1c(NC(=O)Cc2coc3cc(C)cc(C)c23)sc2c1CCCC2`: the survival was inactive: 72%.

As to `CCc1ccc(CNC(=O)CSc2cc(=O)n(C)c3ccc(Cl)cc23)cc1`, the survival was active: 31%.

Turning to `CC(NC(=O)CCSCc1ccccc1F)c1ccccc1` (stereo unspecified), the survival is inactive: 100%.

For the molecule `O=C(c1ccc2c(c1)N(Cc1ccccc1F)C(=O)c1ccccc1S2(=O)=O)N1CCCC1`, the survival is inactive: 92%.

As for `COc1ccc(-c2cc(-c3ccccc3)nc(SCC(=O)CC(=O)OC(C)C)c2C#N)cc1`, the survival is inactive: 55%.

`CC(=O)N1CCC(N(C(=O)Nc2c(F)cccc2F)C(C)C)CC1`: the survival was inactive: 72%.

As to `Cc1ccc(N(C)C(=O)c2cnc(N3CCOCC3)c3ccccc23)cc1C`, the survival is inactive: 90%.

As for `COc1ccc(C(C(C#N)C#N)C2C(=O)N(Cc3ccccc3)N=C2C)cc1` (stereo unspecified), the survival was inactive: 87%.

`O=C(NCc1cccc(Cl)c1)C1CCN(C(=O)c2sccc2-n2cccc2)CC1`: the survival is inactive: 88%.

As for `CCc1ccc(C(=O)c2cn(CC(=O)Nc3ccc(OC)cc3OC)c3ccc(CC)cc3c2=O)cc1`, the survival is inactive: 54%.

`O=C1c2ccccc2C(=O)N1CCCn1nnc(-c2ccc(N3CCOCC3)cc2)n1`: the survival is inactive: 74%.

On to `Cc1cccc(OCC(=O)Nc2c(C(=O)Nc3ccc(F)cc3)oc3ccccc23)c1`, for which the survival is inactive: 96%.

On to `O=C(CN1C(=O)c2ccccc2S1(=O)=O)NC1CCCC1`, for which the survival was inactive: 82%.

As to `Cc1cccc(N2C(=O)CSC23C(=O)N(C)c2ccccc23)c1` (stereo unspecified), the survival is inactive: 76%.

For `COc1ccc(NCc2cc3ccc(OC)cc3n(CC(=O)Nc3ccc(C)c(C)c3)c2=O)cc1`, the survival was inactive: 93%.

With `C/C(=N\NC(=O)C1CC1(C)c1ccccc1)c1ccco1` (stereo unspecified), the survival is inactive: 106%.

Consider `COc1cc(NC(=O)NCCc2c(C)nn(C)c2C)cc(OC)c1OC`, for which the survival was inactive: 70%.

`CCCN1CCN(c2nnc(-n3cccc3C(=O)Nc3ccccc3C(F)(F)F)s2)CC1`: the survival is inactive: 144%.

Regarding `CCc1ccc(-n2nc(C)c3c(C)cc(=O)n(CC(=O)Nc4cc(Cl)ccc4OC)c32)cc1`, the survival is active: 52%.

Consider `CCOc1ccc(OCC)c(NC(=O)c2cnn(-c3ccc(F)cc3)c2-n2cccc2)c1`, for which the survival was inactive: 80%.

On to `Cc1cccc2c(=O)cc(CSc3ccccc3NC(=O)c3cccc(Cl)c3)[nH]c12`, for which the survival is inactive: 87%.

For `CCOc1ccc(-c2cc3c(=O)n(Cc4nc(-c5ccc(OCC)c(OC)c5)oc4C)ccn3n2)cc1Cl`, the survival was inactive: 183%.

Regarding `CCCCn1cc2c(c1-c1ccc(Br)cc1)c(=O)n(C)c(=O)n2C`, the survival was inactive: 58%.

For the molecule `Cc1ccc2nc(CSc3nnc(NC(=O)C(C)C)s3)cc(=O)n2c1`, the survival was active: -1%.

Regarding `CSc1ccc(C2c3c(-c4ccccc4O)n[nH]c3C(=O)N2Cc2ccncc2)cc1` (stereo unspecified), the survival was inactive: 70%.

Consider `Cc1ccc(C)n1NC(=O)c1ccc(O)cc1`, for which the survival was inactive: 102%.

As for `CCc1ccc(NC(=O)C2CCCN(S(=O)(=O)c3ccc4[nH]c(=O)ccc4c3)C2)cc1` (stereo unspecified), the survival is inactive: 85%.

For `CCC1CN(C(=O)NCc2ccc(F)cc2)c2cc(C)ccc2O1` (stereo unspecified), the survival is inactive: 52%.

Take `Cc1ccc(/C=C/C(=O)NCCCn2ccnc2)cc1`: the survival was inactive: 80%.

Take `CCOC(=O)C1CCN(C(=O)Cn2nc(C)n3c(cc4c(OC)cccc43)c2=O)CC1`: the survival was inactive: 87%.

For the molecule `COc1cccc(C(c2sc3nc(-c4ccco4)nn3c2O)N2CCC(C)CC2)c1` (stereo unspecified), the survival was inactive: 78%.

Turning to `O=C(CSc1ccnc(=O)[nH]1)NCc1ccc(F)cc1`, the survival was inactive: 99%.

For the molecule `COc1ccc(C2NCCS2)cc1` (stereo unspecified), the survival was inactive: 65%.

For the molecule `COc1ccc(S(=O)(=O)Nc2cccc(-c3ccc(N4CCCCCC4)nn3)c2)cc1OC`, the survival was inactive: 81%.

`CC(C)(C)OC(=O)N1CCC(c2c(C(=O)N3CCN(c4cccc(Cl)c4)CC3)cnn2-c2cccc(Cl)c2)CC1`: the survival is inactive: 124%.

Consider `CC(=O)Nc1cc2c(cc1C(=O)c1ccccc1)OCCO2`, for which the survival is inactive: 108%.

`O=C(NCc1ccccc1)C1CCN(c2ncnc3c2nc2n3CCCCC2)CC1`: the survival was inactive: 84%.

In the case of `NC(=O)C1CCN(C(=O)CSc2nccc(-c3ccccc3)n2)CC1`, the survival was inactive: 90%.

As for `CC1CCCCN1C(=O)C1COc2ccccc2O1` (stereo unspecified), the survival was inactive: 65%.

As for `O=C1C2C3C=CC(C3)C2C(=O)N1c1ccc2c(c1)OCO2` (stereo unspecified), the survival was inactive: 73%.

Regarding `CCOC(=O)c1cccc(NC(=O)C2COc3ccc(OC)cc3C2)c1` (stereo unspecified), the survival was inactive: 80%.

Take `Cc1ccc(CCNC(=O)C2CC(=O)N(CCc3ccc(C)cc3)C2)cc1` (stereo unspecified): the survival was inactive: 101%.

As to `O=C(NCc1ccc(Cl)cc1)c1ccc2c(c1)nnn2C1CCCC1`, the survival was inactive: 92%.

In the case of `CCCCc1ccc(NC(=O)Cn2cnc3c(oc4ccccc43)c2=O)cc1`, the survival is inactive: 83%.

Take `Cc1ccc(-n2cc(-c3ccccc3)c3c(N4CCC(C)CC4)ncnc32)cc1Cl`: the survival is inactive: 86%.

In the case of `COc1ccc(C)cc1NC(=O)CSc1nc(=O)n(Cc2ccco2)c2c1CCC2`, the survival was inactive: 116%.

As for `CCOC(=O)C1CCCN(c2c3c(nc4cc(-c5ccc(C)cc5)nn24)CCC3)C1` (stereo unspecified), the survival is inactive: 105%.

As to `Cc1cccc(N(C)S(=O)(=O)c2nnc(NC(=O)C(C)Oc3ccccc3)s2)c1` (stereo unspecified), the survival was inactive: 54%.

`CN1C(=O)c2ccccc2Sc2ccc(NC(=O)Cc3ccc(Cl)cc3)cc21`: the survival was inactive: 119%.

For `COc1ccc(OC)c(CCNC(=O)c2ccc3c(c2)N(Cc2ccccc2)CCS3)c1`, the survival was inactive: 83%.

For the molecule `COC(=O)c1sccc1S(=O)(=O)N1CCN(c2cccc(C)c2)C(C)C1` (stereo unspecified), the survival was inactive: 88%.

As for `CCCSC1=NC2(CCN(C(=O)NC3CCCCC3)CC2)N=C1c1ccc(C)cc1`, the survival was inactive: 77%.

As for `CN1CCN(NC(=O)c2ccc(Cl)cc2)CC1`, the survival was inactive: 80%.

As to `COCCNC(=O)c1cn(C(C)c2ccccc2)nn1` (stereo unspecified), the survival is inactive: 106%.

In the case of `Cc1ccccc1NC(=O)CSc1nc2c(oc3ccccc32)c(=O)n1Cc1ccco1`, the survival was inactive: 64%.

`Cc1ccc(C)c(OCc2nc3ccccc3n2C)c1`: the survival was inactive: 59%.

`Cc1nc2nc(NCc3ccccc3Cl)[nH]n2c(=O)c1Cc1ccccc1`: the survival was inactive: 83%.

In the case of `CCCC(=O)Nc1ccc(NC(=O)c2ccc(OC)cc2)cn1`, the survival was inactive: 101%.

Take `CCOC(=O)c1cnc2c(C)cc(C)cc2c1NCCN1CCOCC1`: the survival is active: 32%.

As to `O=C(Nc1ccccc1OCc1cc(=O)n2ccccc2n1)Nc1ccccc1C(F)(F)F`, the survival was inactive: 75%.

Take `CCOc1ccccc1NC(=O)CCS(=O)(=O)c1ccc2c(c1)oc(=O)n2C`: the survival was inactive: 92%.

As for `CC(C)NC(=O)C1CCCN(c2ncnc3onc(-c4ccc(F)cc4)c23)C1` (stereo unspecified), the survival was inactive: 85%.

On to `CCOc1cc(-c2nnc(SCC(=O)NC3CCCCC3)nc2-c2ccc(OC)c(OCC)c2)ccc1OC`, for which the survival was inactive: 87%.

`CC1(C)Cc2ccccc2C2=NNC(=O)C2=N1`: the survival is inactive: 52%.

`COc1ccc(CNC(=O)CCCn2ccc3cc(S(=O)(=O)N4CCCC4)ccc32)cc1`: the survival is inactive: 101%.

For `Cc1ccc(Nc2nc(Cl)nc(N(C)C#N)n2)cc1`, the survival was inactive: 108%.

Consider `COc1ccc2oc(-c3cccc(NC(=O)c4cc([N+](=O)[O-])ccc4N4CCOCC4)c3)nc2c1`, for which the survival was inactive: 49%.

`CCOC(=O)C(C)Sc1nnc2cc(C)c3ccccc3n12` (stereo unspecified): the survival is inactive: 73%.

As to `CCOC(=O)c1[nH]c2c(c1Cc1ccccc1)C(=O)CC(c1ccc(C(C)(C)C)cc1)C2` (stereo unspecified), the survival was inactive: 63%.

As for `CCOC(=O)C1CCN(C(=O)c2cnn(-c3ccc(F)cc3)c2-n2cccc2)CC1`, the survival was inactive: 73%.

Take `COc1ccc(C(=O)Nc2nc3c(s2)Cc2c(Br)ccc(OC)c2-3)cc1OC`: the survival is active: 36%.

In the case of `Cc1cc(C)cc(N(CC(=O)Nc2c(C)cc(C)cc2C)S(=O)(=O)c2c(C)nn(C)c2C)c1`, the survival is active: -5%.

Regarding `CCN(CC)S(=O)(=O)c1cc(-c2ccc(=O)n(C(C)C(=O)Nc3cccc(C#N)c3)n2)ccc1C` (stereo unspecified), the survival is inactive: 56%.

With `CCc1ccc(NC(=O)CSc2nnc(CC)c(CC)n2)cc1`, the survival is inactive: 72%.

Turning to `Cc1ccc(Cn2c(CN3CCC(C(=O)O)CC3)cc3ccccc32)cc1`, the survival was inactive: 95%.
